Measured values published in the supplement of paper PMC3334620.
In all, about 33,000 sequences were measured (“E-score (-0.5 to 0.5)”: median about -0.032, highest 2% from about 0.36 on). This is one part of the list.

molecular target: T1, Sko1 (UniProt Q02100); assay: PBM E-score (8-mer binding enrichment) (E-score (-0.5 to 0.5)); higher = stronger / more preferred TF binding; most listed sequences are background and not binding sites; settings: protein concentration: 200 nM; construct: GST-full length
T1 sequence: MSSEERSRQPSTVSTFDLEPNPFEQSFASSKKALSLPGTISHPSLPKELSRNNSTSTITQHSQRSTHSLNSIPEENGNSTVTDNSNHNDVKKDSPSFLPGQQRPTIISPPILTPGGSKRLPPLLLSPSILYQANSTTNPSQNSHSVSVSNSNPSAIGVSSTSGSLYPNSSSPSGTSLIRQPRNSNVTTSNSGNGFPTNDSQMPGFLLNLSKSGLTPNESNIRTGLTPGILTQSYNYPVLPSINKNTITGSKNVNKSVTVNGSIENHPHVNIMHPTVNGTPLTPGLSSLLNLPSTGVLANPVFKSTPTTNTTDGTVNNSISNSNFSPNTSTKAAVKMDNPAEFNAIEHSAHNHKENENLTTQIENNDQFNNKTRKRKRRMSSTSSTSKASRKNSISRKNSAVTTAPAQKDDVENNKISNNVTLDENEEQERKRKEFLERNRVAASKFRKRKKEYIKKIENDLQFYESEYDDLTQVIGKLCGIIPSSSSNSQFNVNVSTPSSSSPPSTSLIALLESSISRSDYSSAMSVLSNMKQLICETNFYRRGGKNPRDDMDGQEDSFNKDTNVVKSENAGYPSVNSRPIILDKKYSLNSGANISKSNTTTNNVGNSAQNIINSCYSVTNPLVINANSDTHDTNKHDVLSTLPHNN
Summary of the method: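 Yeast transcription factors carrying a GST tag, as full-length proteins or DNA-binding domains, were produced by PURExpress in vitro transcription/translation. About 100-200 nM protein was applied to universal all-10-mer Agilent arrays, double-stranded by primer extension on fresh or once-stripped slides. Bound protein was detected with fluorescent anti-GST, and scans were normalised with masliner. The Universal PBM Analysis Suite gave each ungapped eight-base word, pooled with its reverse complement, an E-score, a modified Wilcoxon-Mann-Whitney statistic.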

Compared with ACTCGTGG, CCCGCATA is lower in “PBM E-score” value: -0.0737 for the first, -0.0936 for the second.

First: GCCGTACA
Second: AGAGAGGA
The “PBM E-score” value of the first is higher: -0.148 for the first, -0.292 for the second.

Compared with ATTTCTGC, CTTAAGCA is lower in “PBM E-score” value: 0.195 for the first, -0.0027 for the second.

First: CCACGGGG
Second: CCGCCAAC
The “PBM E-score” value of the first is lower: -0.321 for the first, -0.263 for the second.

First: GTGAGAAA
Second: AAAGAGTT
The “PBM E-score” value of the first is higher: 0.0805 for the first, -0.0156 for the second.

First: GTTAGAAA
Second: AAACAACC
The “PBM E-score” value of the first is lower: -0.0687 for the first, -0.0394 for the second.

Going from AACTTCAC to CCCTTTCG, the “PBM E-score” value falls from 0.116 to -0.228.

Compared with AGGCTAGC, AGTTCTAG is higher in “PBM E-score” value: -0.274 for the first, -0.172 for the second.

Compared with ATGTAACG, CAGCCAAG is lower in “PBM E-score” value: 0.251 for the first, -0.131 for the second.

Compared with AACTGGGG, ATACTACC is higher in “PBM E-score” value: -0.242 for the first, -0.0741 for the second.

Compared with AAAGACAC, CGTCAGCC is higher in “PBM E-score” value: 0.143 for the first, 0.302 for the second.

Compared with CGAACAAC, ATAATACA is higher in “PBM E-score” value: 0.161 for the first, 0.208 for the second.

Compared with GATGGGCC, ATAGTCCG is higher in “PBM E-score” value: -0.32 for the first, -0.0283 for the second.

Going from GATGAACC to TAAGAGAA, the “PBM E-score” value rises from -0.133 to 0.137.

First: TGAACACA
Second: GATGGCTA
The “PBM E-score” value of the first is higher: 0.00833 for the first, -0.026 for the second.

Going from AGTCATAG to ATAGGTAC, the “PBM E-score” value rises from -0.0111 to 0.00968.

Compared with CTTTCGAA, AGACCATG is lower in “PBM E-score” value: -0.0514 for the first, -0.277 for the second.

Going from ACCTAGGG to CTCTACTC, the “PBM E-score” value falls from -0.0328 to -0.109.

First: AAACTAGA
Second: GTTAGAGA
The “PBM E-score” value of the first is higher: 0.00906 for the first, -0.0441 for the second.

Compared with AATTCCCA, AGAACTTA is higher in “PBM E-score” value: 0.116 for the first, 0.167 for the second.

First: CTGCTAAA
Second: CGTGGCGC
The “PBM E-score” value of the first is lower: -0.0578 for the first, 0.0703 for the second.

Going from GCGGGACA to AGTTACAT, the “PBM E-score” value rises from -0.185 to 0.0365.

Compared with ATATCACA, AAACGTAA is higher in “PBM E-score” value: -0.0494 for the first, 0.462 for the second.

Compared with AGATGGTA, CACGGGTA is higher in “PBM E-score” value: -0.0645 for the first, 0.0864 for the second.

Compared with CAAGGGAC, AGCGTCTG is lower in “PBM E-score” value: -0.245 for the first, -0.309 for the second.

Going from TATTCAGA to ATCGTTCC, the “PBM E-score” value falls from 0.172 to -0.08.

Going from ACCCTTAG to CAGTAAGG, the “PBM E-score” value falls from -0.12 to -0.205.

Compared with CTTAGCGC, AGAACGAC is lower in “PBM E-score” value: 0.1 for the first, 0.0567 for the second.

Compared with AAACGAAT, GGACCGCC is lower in “PBM E-score” value: 0.207 for the first, -0.415 for the second.

Going from ACCGTGCT to CAGGTATG, the “PBM E-score” value rises from -0.127 to -0.00478.

Compared with AGTATTGG, CGCTCGAC is lower in “PBM E-score” value: -0.104 for the first, -0.216 for the second.

Compared with CTCCTGAC, TCGGATCA is higher in “PBM E-score” value: -0.0161 for the first, 0.0409 for the second.

Going from TACCAATA to GAGTTCAC, the “PBM E-score” value rises from -0.116 to 0.0307.

First: AAAAAGCA
Second: AAAGGATG
The “PBM E-score” value of the first is higher: 0.0572 for the first, -0.0255 for the second.

Going from CCACATAG to AAAGTCAC, the “PBM E-score” value rises from -0.275 to -0.0178.

First: CCCCCTAA
Second: TCACTACA
The “PBM E-score” value of the first is lower: -0.19 for the first, 0.255 for the second.

Compared with AATTATCC, ACATGGTA is lower in “PBM E-score” value: 0.278 for the first, 0.00395 for the second.

First: ATGAGACC
Second: ACGCCATC
The “PBM E-score” value of the first is lower: -0.131 for the first, 0.376 for the second.

Going from CAAGGGCA to ATCAAAGG, the “PBM E-score” value rises from -0.326 to -0.115.

First: ATTCATGA
Second: CCACCGAA
The “PBM E-score” value of the first is higher: 0.229 for the first, -0.00284 for the second.

Going from GTGTAATA to ATGGCCAA, the “PBM E-score” value falls from 0.221 to 0.0668.

Compared with GCGGGCCA, CTCTTGTC is lower in “PBM E-score” value: -0.0885 for the first, -0.187 for the second.

First: TACATTAA
Second: AGATTTAG
The “PBM E-score” value of the first is higher: 0.212 for the first, 0.0772 for the second.

Going from TACTGGGA to AGTGCGAC, the “PBM E-score” value falls from -0.0382 to -0.0962.

First: CGAAAGAA
Second: AGCGAGGG
The “PBM E-score” value of the first is higher: 0.00601 for the first, -0.229 for the second.

Compared with ACCCGAGG, TGTGTTAA is higher in “PBM E-score” value: -0.22 for the first, 0.188 for the second.

First: ATGGTTTA
Second: CCATTATA
The “PBM E-score” value of the first is higher: 0.0771 for the first, -0.0102 for the second.

First: CTCGTTGC
Second: GTACACAA
The “PBM E-score” value of the first is higher: 0.127 for the first, 0.124 for the second.

First: GTACAACA
Second: CGCGTTCA
The “PBM E-score” value of the first is higher: 0.193 for the first, 0.146 for the second.

First: ATACATGC
Second: CATGCCGG
The “PBM E-score” value of the first is higher: 0.0846 for the first, -0.00789 for the second.

Compared with CTATGACA, GCAGGAAC is lower in “PBM E-score” value: 0.236 for the first, -0.0882 for the second.

Compared with CGTCTTGA, ACGATGGC is lower in “PBM E-score” value: 0.183 for the first, 0.13 for the second.

First: AACAGAAA
Second: AGCATTAG
The “PBM E-score” value of the first is higher: 0.0791 for the first, -0.0242 for the second.

Compared with ATCGTTGA, ATCGTCAA is higher in “PBM E-score” value: 0.12 for the first, 0.287 for the second.

First: CACCTTAG
Second: ACCCACGT
The “PBM E-score” value of the first is lower: 0.00263 for the first, 0.374 for the second.

Going from CTCTCTGC to AAACGGTA, the “PBM E-score” value rises from -0.291 to -0.0429.

Compared with ACATTTAT, GCTCTTTA is lower in “PBM E-score” value: 0.173 for the first, -0.0898 for the second.

Compared with GCAACCCC, ACTGAGAA is higher in “PBM E-score” value: -0.249 for the first, -0.195 for the second.

First: ACGGACTC
Second: ATAAATGG
The “PBM E-score” value of the first is lower: -0.236 for the first, 0.00336 for the second.

Compared with CGGGATTA, ATGACGAG is higher in “PBM E-score” value: -0.00217 for the first, 0.462 for the second.

First: CGTATCCA
Second: GAATAGTA
The “PBM E-score” value of the first is lower: 0.158 for the first, 0.192 for the second.

Going from GGATAAGA to AACACGCC, the “PBM E-score” value rises from -0.102 to -0.0487.

Going from AGTAAATC to GAAATGTC, the “PBM E-score” value falls from 0.0872 to -0.00114.

Going from AAGATTGA to CGGACAAG, the “PBM E-score” value falls from 0.0724 to -0.189.

First: CACTCCCG
Second: CTAAGAAG
The “PBM E-score” value of the first is lower: -0.198 for the first, 0.12 for the second.

Going from GAGCGACC to CAAACCCA, the “PBM E-score” value rises from -0.222 to 0.0369.

Compared with CCTCTGCC, ACCAATAG is higher in “PBM E-score” value: -0.346 for the first, -0.294 for the second.

Compared with AAGCACCA, AATGCCCG is lower in “PBM E-score” value: -0.155 for the first, -0.342 for the second.

Going from AGTGCTTG to CGAATGTC, the “PBM E-score” value rises from -0.0619 to 0.0379.

First: ATTTGCCG
Second: CTCTCCTA
The “PBM E-score” value of the first is lower: -0.144 for the first, 0.0822 for the second.

Going from AACATACG to GAAGGACC, the “PBM E-score” value falls from 0.387 to -0.245.

Compared with GAATAGCC, CGAGTTTC is higher in “PBM E-score” value: -0.17 for the first, -0.0568 for the second.

Going from ACGGCGTG to AGTGGTTG, the “PBM E-score” value falls from 0.0446 to 0.00724.

Compared with AATAGGCA, GAGGCTAC is lower in “PBM E-score” value: 0.0422 for the first, -0.196 for the second.

First: AACAGCGA
Second: ATGAACAA
The “PBM E-score” value of the first is lower: -0.126 for the first, 0.187 for the second.

First: AGCTGTAT
Second: GGACGCGA
The “PBM E-score” value of the first is lower: -0.184 for the first, -0.0252 for the second.

Compared with TAGCAACA, CCGCTAGC is lower in “PBM E-score” value: 0.141 for the first, -0.241 for the second.

Compared with ACCTTACC, ACGAAGGA is higher in “PBM E-score” value: -0.0227 for the first, 0.0704 for the second.

First: ACTGTAGG
Second: TCATTAAA
The “PBM E-score” value of the first is lower: -0.0232 for the first, 0.304 for the second.

Compared with CTTACGTC, AAAGGTCG is lower in “PBM E-score” value: 0.459 for the first, -0.191 for the second.

First: TCTTAAAA
Second: CTTAGTAA
The “PBM E-score” value of the first is higher: 0.108 for the first, 0.0423 for the second.

Going from GTTATGGA to TCCATGCA, the “PBM E-score” value falls from 0.198 to -0.168.

Going from AGCACGCT to ACTCTACA, the “PBM E-score” value rises from -0.101 to -0.00963.

Compared with CACTCCGA, CGAGCCTC is lower in “PBM E-score” value: -0.124 for the first, -0.324 for the second.

Compared with CCGCAGGA, CGCCGATA is higher in “PBM E-score” value: -0.348 for the first, -0.12 for the second.

First: ACGCCTCT
Second: ACGAAGGC
The “PBM E-score” value of the first is higher: -0.0788 for the first, -0.163 for the second.
